Source: article PMC4336329 (PLoS ONE, 2015)
Screen size: about 310,000 compounds; about 14,000 (4.5%) showed an effect of 50% or more. Effects have a minus sign here. Some of the results follow.

Molecular target: human ether-à-go-go-related gene (hERG) potassium channel (human, UniProt Q12809)
Assay: primary screen, population patch clamp on CHO cells stably expressing hERG
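Further: peak tail current of the secondary pulse compared with the same well before compound.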

Sequence of human ether-à-go-go-related gene (hERG) potassium channel (Q12809 whole entry, looked up): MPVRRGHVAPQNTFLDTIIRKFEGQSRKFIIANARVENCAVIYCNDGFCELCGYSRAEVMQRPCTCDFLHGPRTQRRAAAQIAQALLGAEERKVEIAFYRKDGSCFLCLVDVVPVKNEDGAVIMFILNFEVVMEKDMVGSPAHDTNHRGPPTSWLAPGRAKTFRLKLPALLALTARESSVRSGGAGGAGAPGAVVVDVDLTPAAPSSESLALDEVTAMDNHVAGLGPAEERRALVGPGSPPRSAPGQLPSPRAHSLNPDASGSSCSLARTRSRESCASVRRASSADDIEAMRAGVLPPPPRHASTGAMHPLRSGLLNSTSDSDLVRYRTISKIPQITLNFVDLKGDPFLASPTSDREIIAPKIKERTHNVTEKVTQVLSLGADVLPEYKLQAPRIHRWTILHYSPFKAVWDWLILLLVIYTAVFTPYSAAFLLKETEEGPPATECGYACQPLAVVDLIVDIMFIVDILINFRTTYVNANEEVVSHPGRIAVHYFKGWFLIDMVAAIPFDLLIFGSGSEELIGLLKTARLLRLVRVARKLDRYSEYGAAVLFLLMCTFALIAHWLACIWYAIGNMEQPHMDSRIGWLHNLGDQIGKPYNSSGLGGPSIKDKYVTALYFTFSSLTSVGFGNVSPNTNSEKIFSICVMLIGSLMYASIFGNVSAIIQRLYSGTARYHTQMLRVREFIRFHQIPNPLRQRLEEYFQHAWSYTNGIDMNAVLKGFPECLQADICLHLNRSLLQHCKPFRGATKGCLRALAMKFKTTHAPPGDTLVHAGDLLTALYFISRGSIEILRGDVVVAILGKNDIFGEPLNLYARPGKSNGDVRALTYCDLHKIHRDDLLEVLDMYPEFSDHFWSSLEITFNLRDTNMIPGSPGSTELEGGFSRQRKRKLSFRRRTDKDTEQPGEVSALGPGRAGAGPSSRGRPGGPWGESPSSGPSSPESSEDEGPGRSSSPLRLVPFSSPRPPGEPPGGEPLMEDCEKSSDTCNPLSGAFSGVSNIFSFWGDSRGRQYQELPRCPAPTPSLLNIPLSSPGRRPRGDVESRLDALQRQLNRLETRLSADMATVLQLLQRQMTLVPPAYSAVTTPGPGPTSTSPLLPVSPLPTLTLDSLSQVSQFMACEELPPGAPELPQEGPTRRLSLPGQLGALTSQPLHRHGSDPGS

| Compound | hERG current change (%, negative = inhibition) at 10uM |
| --- | --- |
| O=S1(=O)CCN2N=C(C3CC3)SC2=N1 | 13.1% |
| CN1C(=O)C(O)(c2nnc(-c3ccccc3)o2)c2ccccc21 (centres unmarked) | 17.4% |
| O=C(COC(=O)c1cnccn1)NCCc1ccc(Cl)cc1Cl | 11.6% |
| Cc1cccc(/C(N)=N/OC(=O)c2ccccc2Cl)c1 | 1.52% |
| Cc1cccc(OCC(=O)NCCCNC(=O)c2ccccn2)c1 | 8.85% |
| CCOc1ccccc1C(=O)OCC(=O)Nc1cc(Cl)ccc1Oc1ccccc1 | 8.18% |
| CCOc1ccc(CN2C(=O)c3ccccc3C2=O)cc1C(=O)N1CCC(C(N)=O)CC1 | 16.8% |
| O=C(CSc1ncccn1)NN=C1CCCCCC1 | -0.0675% |
| Cc1cc(C(=O)CN2C(=O)C(=O)N(Cc3ccccc3)C2=O)c(C)n1CC1COc2ccccc2O1 (centres unmarked) | 4.75% |
| COc1ccc(/C=C2\NC(=O)C(C=NCc3ccccc3)=C2O)cc1 | 3.89% |
| Cc1coc2c1C(=O)C(=O)c1c-2ccc2c(C)cccc12 | 8.76% |
| O=C(O)c1cccc(-c2nnn(Cc3ccccc3)n2)c1 | 1.67% |
| COc1ccccc1C(=O)N/C(=C/c1cccc([N+](=O)[O-])c1)C(=O)Nc1cccc(C(=O)O)c1 | 13.2% |
| COc1cc2c(cc1OC)[C@H](C)N(C(=O)COc1ccccc1)CC2 | 14.6% |
| COc1ccccc1/C=C/C=N/N1CCN(Cc2ccccc2)CC1 | -8.94% |
| CC(C)C1N=C2c3ccccc3N=C(SCC(=O)c3ccc(O)c(O)c3)N2C1=O (centres unmarked) | -23.1% |
| Cc1ccc(NS(=O)(=O)c2ccc3c(c2)n(C)c(=O)n3C)cc1 | -32.1% |
| O=S(=O)(Nc1cccc(Cl)c1)c1ccc2oc(=S)[nH]c2c1 | 25.1% |
| COCCNC(=O)Cn1cnc2sc(C)c(S(=O)(=O)N3CCN(c4ccccc4OC)CC3)c2c1=O | 4.02% |
| CCNC(=O)NS(=O)(=O)c1cnccc1Nc1cccc(Cl)c1 | 25.1% |
| CCC(CC)C(=O)Nc1nnc(S(=O)(=O)N2c3ccccc3CC2C)s1 (centres unmarked) | 2.8% |
| Cc1cc(OCC(=O)NC2CCN(Cc3ccccc3)CC2)c2c(C)cc(=O)oc2c1 | -21.4% |
| CCOC(=O)c1ccccc1NC1c2ccccc2C(=O)N1c1ccc(C)cn1 (centres unmarked) | -2.46% |

| Compound | hERG current change (%, negative = inhibition) at 10uM |
| --- | --- |
| Cc1nc2ccccc2n1CC(=O)NC1CCCCCC1 | 5.61% |
| Cc1sc(N)c(C(=O)c2ccccc2)c1C | 9.41% |
| CCCn1c(NC(=O)c2ccccc2)nc2ccccc21 | -2.52% |
| CCOC(=O)c1[nH]c(C)c(C(=O)Nc2ccc(C)c(F)c2)c1C | 1.5% |
| Cc1ccc(S(=O)(=O)CC(=O)Nc2nc3ccccc3s2)cc1 | 16.9% |
| CCOc1ccccc1CNC(=O)C1Cc2cc(S(=O)(=O)N3CCCCC3)ccc2N1C(C)=O (centres unmarked) | -17.9% |
| COc1ccc(OC)c(-c2cc(C(=O)NCc3cccs3)no2)c1 | -9.23% |
| Cc1sc2ncnc(OCC(=O)N3CCN(S(=O)(=O)c4ccc(Cl)cc4)CC3)c2c1C | -15% |
| CN(Cc1nc2ccccc2[nH]1)C(=O)C1CCC(=O)N(CCc2cccc(F)c2)C1 (centres unmarked) | 4.23% |
| O=C(O)/C=C/C(=O)O.c1ccc(CCC2=NCCn3cccc32)cc1 | -23.6% |
| C=CCN1C(=O)CSc2ccc(C(=O)NC(C)c3ccccc3)cc21 (centres unmarked) | -17.5% |
| Cc1cc(OCCOc2cccc3cccnc23)c(C)cc1Cl | -1.89% |
| COc1ccc2oc(=O)c(C(=O)N3CCN(c4ccc(F)cc4)CC3)cc2c1 | -27.3% |
| COc1ccc(NC(=O)CN2CCN(CC(=O)Nc3ccc(F)cc3)CC2)cc1Cl | -80.5% |
| c1cncc(-c2noc(-c3cccc4ccccc34)n2)c1 | 16.3% |
| Cc1ccc(-n2cc(CN3CCC(O)(c4ccccn4)CC3)c(-c3ccc(F)cc3)n2)cc1 | -56.7% |
| CCOc1ccc(/C=C/C(=O)CCC(=O)O)cc1 | 13.5% |
| COc1ccccc1N(Cc1ccccc1)S(=O)(=O)c1cccc(C(=O)Nc2cccc(C)n2)c1 | -3.51% |
| S=C(Nc1ccc(Oc2ccccc2)cc1)NC1CCCCCC1 | 25.4% |
| Cc1oc(-c2cccs2)nc1CN1CCN(CCC(C)C)C(CCO)C1 (centres unmarked) | -27.6% |
| COc1ccc(C2=[N+]([O-])C(C)(C)N(O)C2(C)C)cc1 | 7.47% |
| Cc1ccc(N2CCN(/N=C/C3=C(N4CCOCC4)C(=C\c4ccccc4)/CC3)CC2)cc1 | 26.2% |
| Cc1ccc(C)c(C(=O)COC(=O)c2cc([N+](=O)[O-])ccc2NCCO)c1 | -9.5% |

| Compound | hERG current change (%, negative = inhibition) at 10uM |
| --- | --- |
| O=C(O)Cn1nc(-c2ccccc2)c2ccccc2c1=O | 21.8% |
| CC(C)n1cnc2cc(NCc3ccccc3O)ccc21 | 3.94% |
| O=C(N/N=C/c1c[nH]c2ccccc12)c1ccccc1Cl | 1.24% |
| COc1ccccc1CNc1ccc2c(c1)CCC2 | 13.8% |
| Cc1ccc(NC(=O)NCc2ccccn2)cc1Cl | 17.6% |
| Cn1c(N)c(C(=O)CSc2nc3ccccc3n2-c2ccccc2)c(=O)n(C)c1=O | 4.96% |
| COc1cc(C(=O)Nc2nccs2)c(Br)c(OC)c1OC | 13.9% |
| CCOC(=O)NC1(C(F)(F)F)NC(=O)N(c2ccc(F)cc2)C1=O (centres unmarked) | 0.469% |
| Cc1ccc(S(=O)(=O)NCC(=O)OCC(=O)N(Cc2ccccc2)C(C)(C)C)cc1 | 1.33% |
| Cc1cc(C)c(C(N)=O)c(Nc2cccc(Cl)c2)n1 | 6.36% |
| CCCn1c(SCc2cc(=O)[nH]c3ccccc23)nc2c1c(=O)n(C)c(=O)n2C | -7.61% |
| O=C(NCc1cccnc1)C1CC(c2ccc(F)cc2)=NO1 (centres unmarked) | -2.23% |
| N#Cc1ccccc1NC(=O)Nc1cccc(Cl)c1 | 4.4% |
| CN(C(=O)CSc1nnc(-c2cccc(F)c2)n1N)C1CCS(=O)(=O)C1 (centres unmarked) | 4.4% |
| COc1ccc(NC(=O)c2cc(S(=O)(=O)N3CCOCC3)cs2)cc1 | 8.55% |
| Clc1ccc(OCCCn2ccnc2)c(Br)c1.O=C(O)C(=O)O | -18.6% |
| CCOC(=O)C1C(=O)C=C(c2ccc(C)cc2)CC1c1ccccc1 (centres unmarked) | 28.2% |
| Cn1c(SCc2c(F)cccc2Cl)nnc1-c1cnccn1 | -0.137% |
| O=C(Nc1nnc(C2CC2)o1)c1ccc(S(=O)(=O)N2CCc3ccccc3C2)cc1 | -27% |
| Cc1ccc(Nc2ccc(C(=O)NCCc3ccccc3)cn2)cc1 | 8.75% |
| Oc1c(/C=N/c2ncn[nH]2)ccc2ccccc12 | -1.58% |
| Cc1c(C(=O)C(=O)NCc2ccco2)c2ccccc2n1C | 1.7% |
| N#Cc1cc(S(=O)(=O)c2ccccc2)c(N)[nH]c1=O | 16.1% |

| Compound | hERG current change (%, negative = inhibition) at 10uM |
| --- | --- |
| Cc1csc(NC(=O)CSc2nnc(-c3ccoc3C)o2)n1 | 4.99% |
| O=C(Nc1cc(N2CCOCC2)ncn1)NC1(C(F)(F)F)Oc2ccccc2O1 | 8.86% |
| Cc1cc(S(=O)(=O)N2CCOCC2)ccc1OCC(=O)Nc1cccc(F)c1 | -18.6% |
| COc1cccc(N2CCN(C(=O)c3cccn4c(=O)c5c(C)c(C)sc5nc34)CC2)c1 | -0.899% |
| CSc1ccc(/C=N/Nc2nc(C)cc(C)n2)cc1 | -14.4% |
| CCOC(=O)C1=C(CNCc2ccccc2Cl)NC(=O)NC1c1ccc2c(c1)OCO2 (centres unmarked) | 2.11% |
| Cn1c(C(O)c2ccccc2)nc(Cl)c1Cl (centres unmarked) | 7.1% |
| Fc1ccc(OCCn2cnc(Cl)c2Cl)cc1 | 1.08% |
| O=C(CSCc1ccccc1Br)Nc1ccccc1 | 7.96% |
| O=C1CC(Sc2nnc(-c3ccccc3)o2)C(=O)N1c1ccccc1 (centres unmarked) | 3.12% |
| O=C(Nc1ccc(C(F)(F)F)cc1)c1ccc(NC(=O)C2CCCO2)cc1 (centres unmarked) | 16.6% |
| Br.N=c1n(CCN2CCOCC2)c2ccccc2n1CC(=O)c1cccc([N+](=O)[O-])c1 | -42.2% |
| Cc1ccc(NCN2C(=O)C3CC=CCC3C2=O)cc1 (centres unmarked) | 2.67% |
| Cc1oc(-c2ccccc2)nc1CS(=O)CC(=O)O (centres unmarked) | 10.2% |
| CCC(C)N1C(=O)/C(=C\c2cc3c4c(c2)CCCN4CCC3)C(=O)NC1=S (centres unmarked) | 15.3% |
| Cc1ccccc1N(CC(=O)NCCSc1ccccn1)S(=O)(=O)c1ccccc1 | -3.92% |
| CN(c1ccc(C(=O)NCc2ccccc2)cc1)S(C)(=O)=O | 4.08% |
| Cc1ccc(-c2nnc(SCC(=O)CC(=O)Nc3ccccc3)n2C)cc1 | -13.8% |
| CS(=O)(=O)N1CCC(Oc2ccccc2C(=O)NC2CCCCCC2)CC1 | 0.371% |
| O=C(/C=C/c1cc([N+](=O)[O-])ccc1OC(F)F)NCc1ccc(Cl)cc1 | 4.74% |
